# Measured values reported in PubChem BioAssay AID1347044 (National Center for Advancing Translational Sciences (NCATS), 2019).
# The list shows a part of the results. The main result of the screen is listed elsewhere. These columns were measured beside it and carry no call. Most of these compounds were active or inconclusive in the main read-out, so they are no random draw. Potencies come from curve fits of mixed quality, noted in brackets.
# Experiment: Natriuretic polypeptide receptor (hNpr1) antagonism - Confirmation; note: nearly all actives have a fitted effect of over 70% in size
# Conditions: HEK293 hNpr1 cGMP GloSensor luminescence, ANP-stimulated; measured here: HEK-hNpr1 cytotoxicity, CellTiter-Glo
# Procedure, shortened: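 HEK293 cells expressing hNpr1 and the pGS-40F GloSensor cGMP sensor, loaded with 2% GloSensor reagent for 2 h, then treated 30 min with compound at room temperature. Luciferase luminescence read before and 20 min after 0.1 nM hNppA stimulation.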
# Tags give direction and shape of the fitted curve.
row,Structure (SMILES),CC50
1,CN(Cc1csc(-c2ccccc2)n1)c1cc(C2CC(O)C2)nc(N)n1 (configuration not stated),"4.85 µM [falling, partial curve]"
2,CC1(C)[C@H](Cc2cc(COc3ccccc3)on2)C[C@@H]1NC(=O)c1cccs1,"35.3 µM [falling, partial curve]"
3,CN(C)c1ccc(C(=O)N2CCN(c3cc(-c4ccc(Cl)cc4)[nH]n3)CC2)cc1,"24.3 µM [falling, partial curve]"
4,O=C(c1cccc2[nH]ccc12)N1CCCN(c2cc(-c3ccc(Cl)cc3)[nH]n2)CC1,"15.3 µM [falling, partial curve]"
5,O=C(c1ccc(Cl)cc1)N1CCN(c2cc(-c3ccc(Cl)cc3)[nH]n2)CC1,"21.7 µM [falling, partial curve]"
6,O=c1ccc(N2CCC(NS(=O)(=O)c3ccccc3Cl)CC2)nn1CC1CC1,"21.7 µM [falling, partial curve]"
7,CSCc1nc(CNc2nc(C3CCCC3)nc3c2cnn3C)cs1,"17.2 µM [falling, partial curve]"
8,CN(C)C(=O)N1C2CCC1CN(c1ccc(C(F)(F)F)cc1)C2,"21.5 µM [falling, partial curve]"
9,Cc1nc(N2CCC(C(=O)NCc3cccc(Cl)c3)CC2)cc(C(F)(F)F)n1,"21.7 µM [falling, partial curve]"
10,CCn1c2c(c(=O)n1Cc1ccccc1)CCN(C(=O)c1ccc(Oc3ccccc3)cc1)C2,"21.7 µM [falling, partial curve]"
11,O=C(Nc1ccc(Oc2ccccc2)cc1)O[C@@H]1CO[C@H]2[C@@H]1OC[C@@H]2NS(=O)(=O)c1ccc2ccccc2c1,"19.3 µM [falling, partial curve]"
12,COc1ccc(NC(=O)Cn2c(N(C)Cc3ccccc3)nc(C)cc2=O)cc1OC,"8.62 µM [falling, full curve]"
13,COc1cc(N2CCC(CO)(Cc3ccccc3C(F)(F)F)CC2)ncn1,"17.2 µM [falling, partial curve]"
14,COc1cccc(N2CCN(c3nc(C(=O)NCc4ccncc4)cs3)CC2)c1,"21.7 µM [falling, partial curve]"
15,Cc1cc(=O)n(CC(=O)Nc2cccc(C(F)(F)F)c2)c(N2CCC(C)CC2)n1,"13.7 µM [falling, partial curve]"
16,COc1ccc(N2CCN(C(=O)Nc3nc(C)ns3)CC2(C)C)cc1,"6.11 µM [falling, full curve]"
17,O=C(Nc1ccc(Cl)cc1)c1nc2c(o1)CCN(Cc1ccncc1)CC2,"3.96 µM [falling, full curve]"
18,Cc1cccc(C(=O)N2CCC3(CC2)CC(N(Cc2ccc(F)cc2)C2CC2)CCO3)c1 (configuration not stated),"21.7 µM [falling, partial curve]"
19,O=C(c1ccncc1)N1CC2CCC(C1)N2Cc1ccc(-c2ccccc2)cc1,"6.85 µM [falling, partial curve]"
20,N#Cc1ccc(CN2CCc3nc(C(=O)Nc4cccc(C(F)(F)F)c4)oc3CC2)cc1,"15.3 µM [falling, partial curve]"
21,O=c1n(-c2ccncc2)nc2n1CCN(Cc1ccc(C(F)(F)F)cc1)C2,"15.3 µM [falling, partial curve]"

row,Structure (SMILES),CC50
1,COc1ccc(NC(=O)c2ccc3c(c2)N(S(=O)(=O)c2ccccc2)CC3)cc1,"21.7 µM [falling, partial curve]"
2,CCCc1nc(NCc2nc(Cc3cccs3)no2)c2cnn(C)c2n1,"24.3 µM [falling, partial curve]"
3,O=C(CCC1CCCC1)N1CCC(c2noc(COc3ccc(F)cc3)n2)C1 (configuration not stated),"24.3 µM [falling, partial curve]"
4,O=C(c1cc(F)ccc1Cl)N1CCN(c2cc(-c3ccc(F)cc3)[nH]n2)CC1,"24.3 µM [falling, partial curve]"
5,N#Cc1cccc(CN2CCOC[C@H]2c2ncc(-c3ccc(Cl)s3)[nH]2)c1,"35.3 µM [falling, partial curve]"
6,COc1ccc(CN(C)C(=O)c2ccc3oc(C)cc3c2)c2cccnc12,"12.2 µM [falling, partial curve]"
7,COc1ccc(C(=O)Nc2ccc(-c3noc([C@@H]4CCCN4Cc4ccc(F)cc4)n3)cn2)cc1,"12.2 µM [falling, partial curve]"
8,Cc1ncnc(N2CCC(CO)(Cc3ccccc3C(F)(F)F)CC2)c1C,"21.7 µM [falling, partial curve]"
9,O=C(CCCc1ccccc1)N1CCC2(CC1)CC(Cc1nc(-c3cccnc3)no1)CCO2 (configuration not stated),"21.7 µM [falling, partial curve]"
10,O=C(Nc1ccc(F)cc1)c1ccc2c(c1)OCCN(c1ccccc1)C2,"49.8 µM [falling, single point]"
11,Cc1cc2c(N3CCC(NCc4noc(C5CCC5)n4)CC3)ncnc2s1,"3.43 µM [falling, full curve]"
12,Cc1ccccc1-c1cnc2[nH]cc(CC(=O)Nc3cccnc3)c2c1,"31.4 µM [falling, partial curve]"
13,CC1=C(C(=O)OC(C)C)C(c2ccc(C)cc2)CC(=O)N1Cc1cccc(C#N)c1 (configuration not stated),"21.7 µM [falling, partial curve]"
14,Cc1cc(F)ccc1NC(=O)c1cc2n(n1)CC(c1ccc(Cl)cc1)OC2 (configuration not stated),"34.3 µM [falling, single point]"
15,O=C(N[C@H]1CO[C@H]2[C@@H]1OC[C@@H]2n1nnnc1Oc1ccc(-n2ccnc2)cc1)c1ccc(C(F)(F)F)cc1,"21.7 µM [falling, partial curve]"
16,Cc1c[nH]c(CN2CCCC(CCc3ccc(F)cc3F)C2)c(C)c1=O (configuration not stated),"3.85 µM [falling, partial curve]"
17,O=C1N(Cc2ccc(F)cc2)C[C@H]2CN(Cc3ccc(C(F)(F)F)cc3)CCN12,"22.2 µM [falling, partial curve]"
18,COc1ccc(C(=O)N2CCC3(CC2)CC(=O)Nc2ccccc2O3)cc1,"19.3 µM [falling, partial curve]"
19,CC1=NS(=O)(=O)N(C)C=C1C(=O)OCc1nc(-c2ccccc2)oc1C,"15.3 µM [falling, partial curve]"
20,O=C(c1cc(F)ccc1Cl)N1CCC(Cc2nc(-c3ccc(F)cc3)no2)CC1,"12.2 µM [falling, partial curve]"
21,CC(=O)N1CCc2cc(S(=O)(=O)NCCCC(=O)N3CCC(CCOc4ccccc4)C3)ccc21 (configuration not stated),"9.68 µM [falling, partial curve]"

row,Structure (SMILES),CC50
1,Cc1ccc(C(=O)N2CCN(c3cc(-c4ccc(Cl)cc4)[nH]n3)CC2)cc1F,"19.3 µM [falling, partial curve]"
2,Cn1ccc(NC(=O)[C@@H]2C[C@@H](c3ccc(F)cc3)N(Cc3ccccc3)C2)n1,"35.3 µM [falling, partial curve, poor fit]"
3,Cc1ccc(-n2ncc3c2CCCC3NC(=O)c2cc(C(C)C)no2)cc1C (configuration not stated),"19.3 µM [falling, partial curve]"
4,Cc1ccc(F)cc1CN1CCOc2cc([S+](=O)([O-])N(C)C)ccc2C1,"31.4 µM [falling, partial curve]"
5,COc1ccc(C2=NOC3(CCN([S+](=O)([O-])c4cccc(OC)c4)C3)C2)cc1 (configuration not stated),"24.3 µM [falling, partial curve]"
6,O=C(c1ccccn1)N1CC(Oc2ccc(-c3noc(C4CC4)n3)cc2)C1,"21.7 µM [falling, partial curve]"
7,Cc1ccc(C)c(C(=O)N2CCC3(CC2)N=C(c2ccc(Cl)cc2)NO3)c1,"24.3 µM [falling, partial curve, poor fit]"
8,CN(C(=O)c1cnc2n[nH]c(-c3ccccc3)c2n1)c1ccccc1,"31.4 µM [falling, partial curve]"
9,O=C(COc1ccccc1)N1CCN(C(=O)c2nnn3c2COC(c2ccc(Cl)cc2)C3)CC1 (configuration not stated),"21.7 µM [falling, partial curve]"
10,COc1cccc(-c2noc(CC3CCN(C(=O)COc4cccc(C)c4)CC3)n2)c1,"43.2 µM [falling, single point]"
11,O=C(Nc1ccc(Cl)cc1)c1nc2c(o1)CCN(CC1CC1)CC2,"62.7 µM [falling, single point]"
12,OCC1CN(c2ccncn2)CC12CCN(Cc1cc(F)c(F)c(F)c1)CC2 (configuration not stated),"24.3 µM [falling, single point]"
13,CCOc1ccccc1C(=O)N1CCc2[nH]nc(-c3ccc(F)c(F)c3)c2C1,"34.3 µM [falling, single point]"
14,CCOC(=O)c1ccc(NC(=O)Cn2c(N3CCC(C)CC3)nc(C)cc2=O)cc1,"21.7 µM [falling, partial curve]"
15,CCC(O)C(=O)N1CCc2onc(-c3ccc(-c4ccccc4)cc3)c2C1 (configuration not stated),"21.7 µM [falling, partial curve]"
16,O=C(c1ccc(Cl)cc1Cl)N1CCN(c2cc(-c3cccs3)[nH]n2)CC1,"21.7 µM [falling, partial curve]"
17,Cc1cc(CNC(=O)c2cc(C(C)C)nn2C)c2[nH]c(C)c(C)c2c1,"6.11 µM [falling, partial curve]"
18,CN(Cc1cccc2cnccc12)C(=O)c1cc(COc2ccc(F)cc2F)on1,"21.7 µM [falling, partial curve]"
19,Cc1nc(N2CCC(C(=O)NC3CCCCCCC3)CC2)cc(C(F)(F)F)n1,"10.9 µM [falling, partial curve]"
20,CCN(Cc1ccccc1)C(=O)CCC1CCN(S(=O)(=O)c2ccccc2)CC1,"10.9 µM [falling, partial curve]"
